# In all, about 33,000 sequences were measured (“E-score (-0.5 to 0.5)”: median about -0.054, highest 2% from about 0.35 on). Some of the results follow.
# Target: T1, Stb5 (UniProt P38699)
# T1 sequence: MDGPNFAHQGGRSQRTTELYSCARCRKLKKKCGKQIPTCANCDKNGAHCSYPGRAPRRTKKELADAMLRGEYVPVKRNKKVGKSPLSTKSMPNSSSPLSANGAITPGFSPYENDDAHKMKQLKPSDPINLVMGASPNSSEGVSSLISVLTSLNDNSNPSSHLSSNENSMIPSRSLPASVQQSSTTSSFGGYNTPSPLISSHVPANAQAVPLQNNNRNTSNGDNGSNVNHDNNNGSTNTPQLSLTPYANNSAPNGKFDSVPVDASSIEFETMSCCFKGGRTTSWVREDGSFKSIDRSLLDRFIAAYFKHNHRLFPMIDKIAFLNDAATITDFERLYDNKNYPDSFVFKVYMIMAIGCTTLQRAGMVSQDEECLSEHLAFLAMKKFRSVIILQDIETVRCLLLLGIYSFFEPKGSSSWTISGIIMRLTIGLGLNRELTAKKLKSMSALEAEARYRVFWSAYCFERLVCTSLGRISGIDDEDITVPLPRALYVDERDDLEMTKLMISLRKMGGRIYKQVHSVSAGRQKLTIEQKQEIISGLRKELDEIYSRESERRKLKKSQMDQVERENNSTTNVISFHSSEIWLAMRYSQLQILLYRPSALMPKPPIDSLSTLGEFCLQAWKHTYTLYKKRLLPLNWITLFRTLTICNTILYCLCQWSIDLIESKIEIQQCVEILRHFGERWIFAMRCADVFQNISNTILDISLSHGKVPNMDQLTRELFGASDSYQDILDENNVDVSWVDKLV
# Assay: PBM E-score (8-mer binding enrichment) (E-score (-0.5 to 0.5)); higher = stronger / more preferred TF binding; most listed sequences are background and not binding sites
# Settings: protein concentration: 200 nM; construct: GST-full length
# Procedure, shortened: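 Universal all-10-mer Agilent arrays, double-stranded by primer extension on fresh or once-stripped slides, were probed with about 100-200 nM GST-tagged yeast transcription factors made by PURExpress. Fluorescent anti-GST detected bound protein, and masliner normalised the scans. E-scores from the Universal PBM Analysis Suite were given to each ungapped eight-base word pooled with its reverse complement.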
row,Sequence,PBM E-score
1,CTTGGCCA,-0.271
2,AGCTTTAC,-0.103
3,AGGAAGAA,-0.217
4,CGTTGACA,-0.0392
5,GAAAGAAC,-0.055
6,ACGGGGAC,0.241
7,AGTGAGAG,-0.131
8,CAGAGACG,0.0627
9,GCCCAGCA,-0.188
10,ACCGCGGA,0.358
11,ACTACCAA,-0.139
12,AGATAACC,0.0119
13,CCGTCCCA,0.18
14,ATGCTCGA,-0.0755
15,ATGATAAT,0.0585
16,GGCCTGGA,-0.104
17,CACAAGTC,-0.0745
18,GGGCCATA,0.0906
19,CTTCGCAA,-0.0239
20,TATAGCGA,-0.00055
21,ACGGATAC,0.11
22,CACCAGCC,0.0128
23,CTTTGACA,-0.135
24,ACCGGTAG,0.296
25,AAACATGA,-0.275

row,Sequence,PBM E-score
1,TCTCTTAA,-0.186
2,AAAGTGGC,-0.165
3,GATGGGTA,-0.205
4,AGTGTCCC,0.00631
5,ATCAGGTC,-0.158
6,GCTCATAA,0.0681
7,AATAATCG,-0.0389
8,ACCCCCCA,-0.204
9,CGACTGAA,0.0545
10,CTGTACTC,-0.206
11,ACGCTTCC,-0.128
12,ACAATGGA,-0.155
13,CGCTCCGA,0.231
14,GGTGGCCA,-0.153
15,GAAAGATA,-0.155
16,CGTACTAA,-0.00943
17,AGTGGGCG,-0.102
18,AATCCGAC,0.257
19,CAAGCGTG,-0.307
20,TCTATACA,-0.034
21,GACTAAAC,-0.0922
22,GTGGTGGA,0.0383
23,CCCACAGA,-0.342
24,CGGATAGA,0.175
25,ATCAGATA,-0.0877

row,Sequence,PBM E-score
1,ATCTTAGG,-0.195
2,AACCTCGT,-0.0256
3,AGACTAGG,-0.276
4,GGTACCTA,-0.0225
5,CGATTAGA,-0.0242
6,AAGAGAGG,-0.157
7,GAAAAGTC,0.122
8,AGAATGCT,-0.223
9,TACATGGA,-0.135
10,AAATGTTG,-0.224
11,CCAGCCAC,-0.179
12,ATTATTGA,-0.0373
13,CCCCGTAA,0.266
14,ATGAAACG,0.067
15,GAGCCTAC,-0.105
16,CACAGGAC,0.0471
17,CAAGCGCC,0.251
18,AGGGTTGC,-0.309
19,AGTAGTTC,0.101
20,GTCGGGCA,0.278
21,ACCTAGAG,-0.0461
22,ACTTTAGG,-0.124
23,AAATCGAT,-0.346
24,CTTTGCAA,0.0832
25,GACTCCGC,0.333

row,Sequence,PBM E-score
1,CCTCTCAG,-0.416
2,GGCGCTAA,0.248
3,AGACGTTG,-0.225
4,ACCGGAAC,0.29
5,ACCCGTTG,0.117
6,TAGGACCA,-0.145
7,CGTGCGAC,0.0989
8,CATCCAAA,-0.0824
9,AGTGGCAG,-0.156
10,ATTATATG,-0.0893
11,GGTTCTCA,-0.0445
12,CACTTCGG,0.116
13,CTCAATGA,-0.256
14,CCCCGTAG,0.176
15,TAACATTA,-0.0792
16,AGCAAAGC,-0.121
17,CCTCACGA,-0.179
18,TGCGAAAA,0.0823
19,ATAATTCC,0.256
20,GTCCGGGA,0.192
21,ATCTCACA,-0.305
22,CCAATATC,-0.0804
23,ACCTACCC,0.0642
24,CGCATGAC,-0.106
25,TCGTGCAA,-0.175

row,Sequence,PBM E-score
1,CCGGCTTC,0.15
2,AAGTTGAT,-0.0616
3,GAGGGTGC,-0.0689
4,CATAATCA,-0.0813
5,CCTCTCTC,-0.203
6,AGTGTCTG,-0.294
7,ACTGATGC,-0.0507
8,ACTTATTC,0.142
9,ACCCGGTC,0.204
10,AAGCTTCG,-0.036
11,AAATTCCA,-0.117
12,GCACGGCA,0.145
13,TCAGAGCA,-0.227
14,GGGAGGTA,-0.0504
15,ATATGATA,0.0733
16,ACGCTGTG,-0.0747
17,GACTTAAC,0.162
18,ACTCAAAT,-0.142
19,ACAACAAC,-0.241
20,AATTAATA,0.064
21,CGCTCCAG,0.13
22,GAGTGCGC,0.1
23,ATCACGTG,-0.114
24,ATAATATA,0.154
25,AATCAAGC,-0.0303

row,Sequence,PBM E-score
1,AGACACCC,-0.231
2,CAACTTAC,-0.0649
3,CTGGCCCA,-0.253
4,AGGTGTCG,0.0858
5,AGCCGCTA,0.173
6,CATCAGGA,0.0158
7,GTAGCGGA,0.292
8,ATTGGCAA,-0.286
9,CGTCGGGA,0.337
10,CTGGTCGC,-0.00608
11,ATTTCCCG,0.262
12,ACGCGGAT,0.13
13,ATCACGCA,-0.0917
14,AAAGCGCT,0.117
15,TAGAGGAA,-0.265
16,AAAGGTCT,-0.0618
17,AGAGTGTA,-0.142
18,ATAGAACA,-0.145
19,CCTGTTAA,-0.32
20,CGTCACTA,-0.00179
21,AGCGGCAG,0.276
22,CCAATCAG,-0.374
23,ATGTACTA,-0.0681
24,ACCTTTAG,0.0714
25,CCGTGTTA,0.141

row,Sequence,PBM E-score
1,ACTAAGGC,0.0655
2,TCACGTAA,-0.272
3,GTCGATTA,-0.276
4,CGGCCAAA,0.129
5,CACCGCTA,0.388
6,ATTGTTAA,0.00646
7,CTGTTAAG,-0.199
8,GCTTGACA,-0.0722
9,AACTGTGT,-0.0455
10,AGCAAGCA,-0.263
11,GACGCTGA,-0.023
12,GCCCCCGC,0.256
13,ACGGCCAT,0.276
14,CGAGCAAC,0.0946
15,TCCATGAA,0.102
16,GGTTACCA,0.098
17,CTCGTACA,-0.178
18,TAGTTTGA,0.00391
19,TATTCACA,0.00428
20,CGGGAATC,0.188
21,GCTGGGCC,-0.0948
22,CACTCGCG,0.0937
